Out of some 390,000 compounds screened, about 360 (0.092%) were called active. Inconclusive results, whose numbers are uncertain, are shown with a selection of clear calls. Calls come from the whole dose curve; as a rule, active = well fitted inhibition curve with a large enough effect; inconclusive = small, poorly fitted or top-dose-only effect; inactive = no such curve, though single readings can be large or run the other way. A potency beside an inconclusive call is a rough fit, not a confirmed value.
Target: Isocitrate dehydrogenase [NADP] cytoplasmic (Homo sapiens) (UniProt O75874)
Assay: qHTS for Inhibitors of mutant isocitrate dehydrogenase 1 (IDH1): qHTS; note: nearly all actives have a fitted effect of over 65% in size
Details: IDH1-R132H enzyme, NADPH consumption, diaphorase/resazurin fluorescence; series mostly up to 76.6 µM; activity change, negative = inhibition: at the top concentration
In short: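 IDH1-R132H (0.5 ug/mL dispensed) in pH 7.5 Tris buffer was preincubated 30 min with compound, then given a substrate mix of 0.016 mM NADPH and 2 mM alpha-KG for 80 min at room temperature; remaining NADPH was read by diaphorase/resazurin fluorescence.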
% is set by controls: 0 for no effect and ±100 for the full control effect; potency is the fitted concentration of half-maximal effect; tags give direction and shape of the fitted curve.

| SMILES | Potency | activity change, negative = inhibition |
| --- | --- | --- |
| COc1ccc(Cl)cc1N(C(=O)c1ccco1)C(C(=O)NC1CCCC1)c1cccnc1 (stereo not drawn) | inconclusive: 52.1 µM [inhibitor, partial curve] | – |
| COc1nc(-c2ccccc2)c2cc(C)ccc2n1 | – | inactive: 0.0968% |
| CC(C)(C)[C@@H]1C=C(C(=O)Nc2ccccc2)O[C@H](OCc2ccc(CO)cc2)C1 | active: 44.7 µM | – |
| COc1ccc(NC(=S)NC(NC(=O)c2cccc(Cl)c2)C(Cl)(Cl)Cl)c([N+](=O)[O-])c1 (stereo not drawn) | – | inactive: 5.82% |
| C#C[C@]1(O)CCC2C3CCC4=Cc5oncc5CC4(C)C3CCC21C (stereo partly drawn) | inconclusive: 50.1 µM [inhibitor, partial curve, poor fit] | – |
| Cc1nc2c(c(SCC(=O)Nc3ccccc3C(F)(F)F)n1)CCC2 | – | inactive: 4.82% |
| Clc1cccc(Cl)c1CO/N=C/c1c(-c2ccccc2)nc2n1CCS2 | – | inactive: 1.26% |
| COc1cc2c(=O)c(C(=O)c3ccc(C)c(C)c3)cn(Cc3ccc(F)cc3)c2cc1OC | inconclusive: 44.7 µM [inhibitor, partial curve, poor fit] | – |
| CCCCCCC(=O)N(O)C1CC(=O)N(Cc2ccccc2)C1=O (stereo not drawn) | – | inactive: 7.35% |
| Cc1nc(N2CCCC2)c2c(C(=O)N3CCN(c4cc(Cl)ccc4C)CC3)c(C)oc2n1 | inconclusive: 50.1 µM [inhibitor, single point] | – |
| CCN1C(=O)/C(=C\c2nc3ccccc3c(=O)n2-c2ccccc2)c2ccccc21 | inconclusive: 58.5 µM [inhibitor, single point] | – |
| CCCCN(C)C(=O)Cn1cnc2sc(C)c(S(=O)(=O)N3CCC(C)CC3)c2c1=O | – | inactive: 0.667% |
| CN1CC(c2ccccn2)C2(SC(=S)N(Cc3ccccc3)C2=O)C12C(=O)Nc1ccccc12 (stereo not drawn) | inconclusive: 29.3 µM [inhibitor, partial curve] | – |
| COc1cccc([C@@H]2Oc3ccc(OC)cc3C(=O)[C@H]2O)c1 | inconclusive: 50.1 µM [inhibitor, single point] | – |
| O=C(CCCN1C(=O)/C(=C/c2ccccc2Cl)SC1=S)NNC(=O)c1ccccc1 | – | inactive: 2.92% |
| COCCNC(=O)CN1C(=O)COc2ccc(S(=O)(=O)N3CCCC3)cc21 | – | inactive: 17.4% |
| CCO[C@@H]1OC(C(=O)Nc2ccccc2)=C[C@H](c2ccc(C(F)(F)F)cc2)[C@H]1CCCO | inconclusive: 35.5 µM [inhibitor, partial curve] | – |
| CN(Cc1ccccc1)C(=O)c1cccc(NC(=O)Cc2cccc([N+](=O)[O-])c2)c1 | – | inactive: 2.59% |
| COc1ccc(-c2c(-c3ccc(OCC(=O)NN)cc3O)n[nH]c2C(F)(F)F)cc1 | inconclusive: 58.5 µM [inhibitor, single point] | – |
| O=C(CCl)N1CCN(S(=O)(=O)c2ccc3c(c2)CCC3)CC1 | active: 46.5 µM | – |
| CC(C)Cn1c(SCC(=O)Nc2cccc(S(N)(=O)=O)c2)nc2ccccc2c1=O | inconclusive: 50.1 µM [inhibitor, single point] | – |
| COc1ccc(CNC(=O)c2cccc(NC(=O)N3CCSc4ncccc43)c2)cc1 | inconclusive: 50.1 µM [inhibitor, single point] | – |

| SMILES | Potency | activity change, negative = inhibition |
| --- | --- | --- |
| CCOP(=O)(OCC)C1NC(=O)N(c2ccccc2)C1=O (stereo not drawn) | inconclusive: 52.1 µM [inhibitor, single point] | – |
| O=C1c2[nH]nc(-c3ccccc3O)c2C(c2cccc(Cl)c2)N1Cc1ccco1 (stereo not drawn) | inconclusive: 52.1 µM [inhibitor, single point] | – |
| CCOC(=O)CSC1=NC(=O)/C(=C/c2ccc(Br)cc2)S1 | inconclusive: 41.4 µM [inhibitor, partial curve] | – |
| CCOC(=O)c1oc2c(CN3CCN(CCO)CC3)c(O)c(CC)cc2c(=O)c1-c1nc2ccccc2s1 | inconclusive: 20.7 µM [inhibitor, full curve] | – |
| CCCCCCC(O)(c1ccccc1)C(CN1CCOCC1)c1ccccc1 (stereo not drawn) | – | inactive: 4.68% |
| COC(=O)c1ccc(NC2(C#N)C(=O)Nc3ccccc32)cc1 (stereo not drawn) | inconclusive: 32.9 µM [inhibitor, partial curve] | – |
| O=C1Nc2ccccc2Oc2cc(Oc3ccc(Cl)cc3)ccc21 | inconclusive: 44.7 µM [inhibitor, single point] | – |
| CC/C(O)=C1\C(=O)CC(c2ccccc2)CC1=NCCc1c(C)[nH]c2ccc(C)cc12 (stereo not drawn) | inconclusive: 44.7 µM [inhibitor, partial curve, poor fit] | – |
| CSC1=C(C#N)C(c2ccccc2C)C(C#N)=C(N)N1 (stereo not drawn) | inconclusive: 29.3 µM [inhibitor, full curve] | – |
| CC(C)c1nc2sc3c(=O)[nH]c(=S)[nH]c3c2c2c1CCCC2 | inconclusive: 58.5 µM [inhibitor, single point] | – |
| Cc1cc(NS(=O)(=O)c2ccc(NS(=O)(=O)c3ccc(CC(C)C)cc3)cc2)nc(C)n1 | active: 18.5 µM | – |
| C=CCSC1=C(C#N)C(c2ccccc2OCC)C(C#N)C(=O)N1 (stereo not drawn) | inconclusive: 20.7 µM [inhibitor, partial curve, poor fit] | – |
| Cc1ccc(C(C(=O)NC2CCCCC2)N(Cc2ccccc2)C(=O)Cc2c[nH]c3ccccc23)o1 (stereo not drawn) | inconclusive: 46.5 µM [inhibitor, single point] | – |
| COc1cccc(NC(=O)Nc2cc(Cl)ccc2C)c1 | – | inactive: 13.2% |
| O=C(COc1ccccc1-c1ccccc1)NCCN1C(=O)S/C(=C\c2cccnc2)C1=O | active: 46.5 µM | – |
| CC(=O)NC(c1ccc(C(C)C)cc1)c1c(O)ccc2ccccc12 (stereo not drawn) | inconclusive: 26.1 µM [inhibitor, partial curve] | – |
| Cc1ccc(S(=O)(=O)c2nnn3c2nc(NC(C)c2ccccc2)c2sccc23)cc1 (stereo not drawn) | inconclusive: 11.2 µM [inhibitor, single point] | – |
| Clc1cccc(NCc2nnc3n2CCCCC3)c1 | – | inactive: -3.5% |
| CC(=O)N(Cc1cccnc1)c1nc2c(F)cc(F)cc2s1 | inconclusive: 70.8 µM [inhibitor, single point] | – |
| Cc1nc([N+](=O)[O-])c(Br)n1Cc1ccc(Cl)c(Cl)c1 | inconclusive: 58.5 µM [inhibitor, single point] | – |
| O=C(Nc1ccccc1Cl)N(Cc1nc2ccccc2c(=O)[nH]1)Cc1cccs1 | inconclusive: 50.1 µM [inhibitor, single point] | – |

Source: PubChem BioAssay AID602179 (National Center for Advancing Translational Sciences (NCATS), 2012)
